{
  "source": "paper PMC7819943",
  "about": "“Rice protein-binding microarrays: a tool to detect cis-acting elements near promoter regions in rice”",
  "note": "The other results are listed elsewhere or left out.",
  "data": [
    {"target": "T1, OsWOX13 (Oryza sativa, UniProt Q5QMM3 1-267)", "T1 sequence": "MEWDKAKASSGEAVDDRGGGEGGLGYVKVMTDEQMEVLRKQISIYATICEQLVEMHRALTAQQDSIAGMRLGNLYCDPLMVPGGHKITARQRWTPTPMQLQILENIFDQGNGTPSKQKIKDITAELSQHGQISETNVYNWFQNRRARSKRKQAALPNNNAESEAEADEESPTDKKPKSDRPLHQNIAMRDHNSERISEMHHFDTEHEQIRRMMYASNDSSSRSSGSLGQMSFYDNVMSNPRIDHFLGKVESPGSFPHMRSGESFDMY", "assay": "protein-binding microarray (RPBM); PBS, 2% BSA, 51.3 ng/ul salmon testes DNA, 50 uM zinc acetate, 200 nM TF, 25 C, 1 h; high values mean tight binding", "conditions": "protein: recombinant; tags: N-terminal polyhistidine and DsRed monomer fusion (pET32a); label: CyDye5-dUTP incorporated in the synthesized complementary strand; 3' TTTTT single-stranded linker to array surface; dsDNA, one strand shown", "procedure,_shortened": "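An Axon 4000B scanner gave the binding signal as per-feature fluorescence intensity in arbitrary units. This followed washing of a custom Agilent array that had been incubated for 1 h at 25 °C with 200 nM protein in PBS, 2% BSA, salmon testes DNA and 50 µM zinc acetate. The proteins were transcription factors fused at the N-terminus to polyhistidine and DsRed, expressed in E. coli BL21-CodonPlus and purified on Ni–NTA.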", "values": [
      {"sequence": "ACAAATTGAAAATTTTCGAACCTCGGAATCTTCTTTGAATCGGAGTCACCTAGTGCAG", "binding signal": "34300 fluorescence intensity (a.u.)"},
      {"sequence": "AGTGAATAATCACTGCTACTGATGGGTATACTAGAGGGGACGGAGTCACCTAGTGCAG", "binding signal": "6980 fluorescence intensity (a.u.)"},
      {"sequence": "TCATTAATGATCTAATCACCAACTAAACTCCCTATCAATTCGGAGTCACCTAGTGCAG", "binding signal": "18200 fluorescence intensity (a.u.)"},
      {"sequence": "TGCTTAATTGAGGAGTAGTTTTGTCCGGCTAATTTGCTAGCGGAGTCACCTAGTGCAG", "binding signal": "48700 fluorescence intensity (a.u.)"},
      {"sequence": "AGGAGGCGACGGCGGAGGAGGTGGTGGTGGTGGTGGTGGTCGGAGTCACCTAGTGCAG", "binding signal": "3820 fluorescence intensity (a.u.)"},
      {"sequence": "TCATATCTGTAAATTATCAGTAGTTACTGTTAATTTGAGGCGGAGTCACCTAGTGCAG", "binding signal": "5560 fluorescence intensity (a.u.)"},
      {"sequence": "AGTAGTTCTGATTGGTTGAAAATGTTTAGATTTTCATGTGCGGAGTCACCTAGTGCAG", "binding signal": "34300 fluorescence intensity (a.u.)"},
      {"sequence": "GGGGTGCTAATGAGACTAATTTTGTGTGGGGACCATTAAACGGAGTCACCTAGTGCAG", "binding signal": "6800 fluorescence intensity (a.u.)"},
      {"sequence": "AGCACGATTACTAATCTTGACTGTTGAATTTGGTACAGATCGGAGTCACCTAGTGCAG", "binding signal": "10500 fluorescence intensity (a.u.)"},
      {"sequence": "GCCTCGAATTAATTCCTCGCCTTCCCCTATAAATACCGCGCGGAGTCACCTAGTGCAG", "binding signal": "4940 fluorescence intensity (a.u.)"},
      {"sequence": "ATAGTGATTTTAAAATATATATTTAATAAAATAGGAACAACGGAGTCACCTAGTGCAG", "binding signal": "3170 fluorescence intensity (a.u.)"},
      {"sequence": "CGGCGTTAATTGTCCTTCGATCCATTATTACAGAAACACTCGGAGTCACCTAGTGCAG", "binding signal": "15400 fluorescence intensity (a.u.)"},
      {"sequence": "ACAAATGATCATTTGCATTATCACCTTCTGAGTCTACTCACGGAGTCACCTAGTGCAG", "binding signal": "5020 fluorescence intensity (a.u.)"},
      {"sequence": "AACATTGATTTTAACTGCGGCCCATTTGGACGCCCAATAACGGAGTCACCTAGTGCAG", "binding signal": "4820 fluorescence intensity (a.u.)"},
      {"sequence": "TTTATTGGAATATAATTAATTCAACATGGGACAATAGTTTCGGAGTCACCTAGTGCAG", "binding signal": "7890 fluorescence intensity (a.u.)"},
      {"sequence": "GGCCATGCATTCAATCAACGACAAAACTATATAAAGCAACCGGAGTCACCTAGTGCAG", "binding signal": "14300 fluorescence intensity (a.u.)"},
      {"sequence": "GTCATAGATTGTTATATTTTAGAACGGAGGTAATACTAATCGGAGTCACCTAGTGCAG", "binding signal": "4560 fluorescence intensity (a.u.)"},
      {"sequence": "AACCATAATTCTCTGATTAATCATAGTATAACAACATATACGGAGTCACCTAGTGCAG", "binding signal": "6190 fluorescence intensity (a.u.)"},
      {"sequence": "AGACGATTGGACTCCTAACTGCAGCTTATGATTTTCTAAACGGAGTCACCTAGTGCAG", "binding signal": "5240 fluorescence intensity (a.u.)"},
      {"sequence": "AATTATCATCAATTTAGGTCCATCCATCATTCACCGACCACGGAGTCACCTAGTGCAG", "binding signal": "10700 fluorescence intensity (a.u.)"},
      {"sequence": "CCATTAACAATATTGGTTTGGATTGAAACTAATGTTGGCCCGGAGTCACCTAGTGCAG", "binding signal": "6020 fluorescence intensity (a.u.)"},
      {"sequence": "TCAAATTTAAATTTAAATTCAAATATCTTATATATATATACGGAGTCACCTAGTGCAG", "binding signal": "9410 fluorescence intensity (a.u.)"},
      {"sequence": "GAAACTGCTAATAAATAACAATTAGTAATGGTGTAGTACTCGGAGTCACCTAGTGCAG", "binding signal": "8130 fluorescence intensity (a.u.)"},
      {"sequence": "AACATGGAGAATATGCTAATTAGTAAAACATGTTGAAGTGCGGAGTCACCTAGTGCAG", "binding signal": "3290 fluorescence intensity (a.u.)"},
      {"sequence": "TCTACAATTAATTAATTAAACCTCTCCATTGCAAGGGTTACGGAGTCACCTAGTGCAG", "binding signal": "36900 fluorescence intensity (a.u.)"},
      {"sequence": "TTACAATTTCTAAAATTAGTAATTCTGGATCATTTACGTGCGGAGTCACCTAGTGCAG", "binding signal": "5760 fluorescence intensity (a.u.)"},
      {"sequence": "CTTGACTTTGATCAAAACATCTTATAACCTTATTAAACGGCGGAGTCACCTAGTGCAG", "binding signal": "4640 fluorescence intensity (a.u.)"},
      {"sequence": "CTCCAGTTGATGATAAGTAATTATTAAGAGTAAGAAATAGCGGAGTCACCTAGTGCAG", "binding signal": "4910 fluorescence intensity (a.u.)"},
      {"sequence": "ACAATGACTGAGTTTTCAACCAACGACAATGGAACAGGATCGGAGTCACCTAGTGCAG", "binding signal": "6420 fluorescence intensity (a.u.)"},
      {"sequence": "TGAGATTGATGTTATCTATCCATTGTTATGAGCAATCACACGGAGTCACCTAGTGCAG", "binding signal": "34600 fluorescence intensity (a.u.)"},
      {"sequence": "CTGGATAATTAATTAGATGCATACGGTCAAAACACACACGCGGAGTCACCTAGTGCAG", "binding signal": "51200 fluorescence intensity (a.u.)"},
      {"sequence": "ATTAATTAGACTCAGAAGATTTGTCTCGCGATTTCCATGCCGGAGTCACCTAGTGCAG", "binding signal": "40000 fluorescence intensity (a.u.)"},
      {"sequence": "ATGAAATGTATTTATTTAATTATTTGTTAATGAGTTGTTTCGGAGTCACCTAGTGCAG", "binding signal": "4870 fluorescence intensity (a.u.)"},
      {"sequence": "AGTTAATTTGTCTACAGTTCTCATTCTCGCTTGTCGCCGTCGGAGTCACCTAGTGCAG", "binding signal": "34500 fluorescence intensity (a.u.)"},
      {"sequence": "CTAGCTTAATTAGCTACGTATACCTTCCTTGTCGCCGGGTCGGAGTCACCTAGTGCAG", "binding signal": "30900 fluorescence intensity (a.u.)"},
      {"sequence": "ATTAATTAGGCTTAATAAATTCATCTCATAGTTTACAAGCCGGAGTCACCTAGTGCAG", "binding signal": "17300 fluorescence intensity (a.u.)"},
      {"sequence": "GCGGTCTTCAATTTATAAGTAATTAAGTACGGCCCTGGTACGGAGTCACCTAGTGCAG", "binding signal": "15800 fluorescence intensity (a.u.)"},
      {"sequence": "CTAGATTAATCCCTCTGTTTAAGCAGTCAAGCTAAACCCGCGGAGTCACCTAGTGCAG", "binding signal": "15300 fluorescence intensity (a.u.)"},
      {"sequence": "ATGATATAGATCTAATTAATCCATTAATAAATCATCACTTCGGAGTCACCTAGTGCAG", "binding signal": "25400 fluorescence intensity (a.u.)"},
      {"sequence": "AAATTAACAATCAGATATAGGGGCAATACAGTAATTCACGCGGAGTCACCTAGTGCAG", "binding signal": "4290 fluorescence intensity (a.u.)"},
      {"sequence": "TTATTAATTATTTTATTTGTGACTTACTTTATTGTCTACACGGAGTCACCTAGTGCAG", "binding signal": "27800 fluorescence intensity (a.u.)"},
      {"sequence": "ATATACTCAACACAAATCAATCTCGCGATCCACTGGATTGCGGAGTCACCTAGTGCAG", "binding signal": "4440 fluorescence intensity (a.u.)"}
    ]}
  ]
}
